# Experimental data taken from the supplement of paper PMC8728848.
# The list shows a part of the results.
# B1: Gal 8 (Mus musculus), Q9JL15 (protein)
# chain: MGGSHHHHHHGMASMLSLNNLQNIIYNPIIPYVGTITEQLKPGSLIVIRGHVPKDSERFQVDFQLGNSLKPRADVAFHFNPRFKRSSCIVCNTLTQEKWGWEEITYDMPFRKEKSFEIVFMVLKNKFQVAVNGRHVLLYAHRISPEQIDTVGIYGKVNIHSIGFRFSSASALPHTLGDLQSMETSALGLTQINRENIQKPGKLQLSLPFEARLNASMGPGRTVVIKGEVNTNARSFNVDLVAGKTRDIALHLNPRLNVKAFVRNSFLQDAWGEEERNITCFPFSSGMYFEMIIYCDVREFKVAINGVHSLEYKHRFKDLSSIDTLSVDGDIRLLDVRSW
# Experiments:
# Experiment in all cases: glycan array binding signal (z-score within array); higher = stronger binding
# Conditions in all cases: glycan notation: IUPAC condensed, linker removed
# Fuc(a1-2)Gal = molecular target: Fuc(a1-2)Gal
# How it was run: (§1)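 The Consortium for Functional Glycomics database supplied 3228 glycan arrays, of which those lacking an available protein sequence were dropped. The binding signal, a within-array Z-score, was averaged across arrays of the same protein sequence and across linkers. Negative scores can be read as non-binding.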
# Fuc(a1-2)Gal(b1-3)GalNAc = molecular target: Fuc(a1-2)Gal(b1-3)GalNAc
# How it was run: as §1
# [1] = molecular target: Fuc(a1-2)Gal(b1-3)GalNAc(a1-3)[Fuc(a1-2)]Gal(b1-4)Glc
# How it was run: as §1
# [2] = molecular target: Fuc(a1-2)Gal(b1-3)GalNAc(a1-3)[Fuc(a1-2)]Gal(b1-4)GlcNAc
# How it was run: as §1
# [3] = molecular target: Fuc(a1-2)Gal(b1-3)GalNAc(b1-3)Gal
# How it was run: as §1
# [4] = molecular target: Fuc(a1-2)Gal(b1-3)GalNAc(b1-3)Gal(a1-4)Gal(b1-4)Glc
# How it was run: as §1
# [5] = molecular target: Fuc(a1-2)Gal(b1-3)GalNAc(b1-4)[Neu5Ac(a2-3)]Gal(b1-4)Glc
# How it was run: as §1
# Fuc(a1-2)Gal(b1-3)GlcNAc = molecular target: Fuc(a1-2)Gal(b1-3)GlcNAc
# How it was run: as §1
# [6] = molecular target: Fuc(a1-2)Gal(b1-3)GlcNAc(b1-2)Man(a1-3)[Fuc(a1-2)Gal(b1-3)GlcNAc(b1-2)Man(a1-6)]Man(b1-4)GlcNAc(b1-4)GlcNAc
# How it was run: as §1
# [7] = molecular target: Fuc(a1-2)Gal(b1-3)GlcNAc(b1-2)Man(a1-3)[Fuc(a1-2)Gal(b1-3)GlcNAc(b1-2)Man(a1-6)]Man(b1-4)GlcNAc(b1-4)[Fuc(a1-6)]GlcNAc
# How it was run: as §1
# [8] = molecular target: Fuc(a1-2)Gal(b1-3)GlcNAc(b1-3)Gal(b1-4)Glc
# How it was run: as §1
# [9] = molecular target: Fuc(a1-2)Gal(b1-3)GlcNAc(b1-3)GalNAc
# How it was run: as §1
# [10] = molecular target: Fuc(a1-2)Gal(b1-3)GlcNAc(b1-3)[Fuc(a1-2)Gal(b1-3)GlcNAc(b1-6)]GalNAc
# How it was run: as §1
# [11] = molecular target: Fuc(a1-2)Gal(b1-3)GlcNAc(b1-3)[Gal(b1-4)GlcNAc(b1-6)]Gal(b1-4)Glc
# How it was run: as §1
# [12] = molecular target: Fuc(a1-2)Gal(b1-3)GlcNAc(b1-3)[Neu5Ac(a2-6)Gal(b1-4)GlcNAc(b1-6)]Gal(b1-4)Glc
# How it was run: as §1
# [13] = molecular target: Fuc(a1-2)Gal(b1-3)GlcNAc6S
# How it was run: as §1
# [14] = molecular target: Fuc(a1-2)Gal(b1-3)[Fuc(a1-4)]GlcNAc
# How it was run: as §1
# [15] = molecular target: Fuc(a1-2)Gal(b1-3)[Fuc(a1-4)]GlcNAc(b1-2)Man(a1-3)[Fuc(a1-2)Gal(b1-3)[Fuc(a1-4)]GlcNAc(b1-2)Man(a1-3)]Man(b1-4)GlcNAc(b1-4)GlcNAc
# How it was run: as §1
# [16] = molecular target: Fuc(a1-2)Gal(b1-3)[Fuc(a1-4)]GlcNAc(b1-2)Man(a1-3)[Fuc(a1-2)Gal(b1-3)[Fuc(a1-4)]GlcNAc(b1-2)Man(a1-6)]Man(b1-4)GlcNAc(b1-4)[Fuc(a1-6)]GlcNAc(b1-4)[Fuc(a1-6)]GlcNAc
# How it was run: as §1
# [17] = molecular target: Fuc(a1-2)Gal(b1-3)[Fuc(a1-4)]GlcNAc(b1-3)[Fuc(a1-3)[Gal(b1-4)]GlcNAc(b1-6)]Gal(b1-4)Glc
# How it was run: as §1
# [18] = molecular target: Fuc(a1-2)Gal(b1-3)[Fuc(a1-4)]GlcNAc(b1-3)[Gal(b1-4)GlcNAc(b1-6)]Gal(b1-4)Glc
# How it was run: as §1
# [19] = molecular target: Fuc(a1-2)Gal(b1-4)Fuc(a1-3)]GlcNAc(b1-2)Man(a1-3)[Fuc(a1-2)Gal(b1-4)[Fuc(a1-3)]GlcNAc(b1-2)Man(a1-6)]Man(b1-4)GlcNAc(b1-4)GlcNAc
# How it was run: as §1
# Fuc(a1-2)Gal(b1-4)Glc = molecular target: Fuc(a1-2)Gal(b1-4)Glc
# How it was run: as §1
# Fuc(a1-2)Gal(b1-4)Glc6S = molecular target: Fuc(a1-2)Gal(b1-4)Glc6S
# How it was run: as §1
# Fuc(a1-2)Gal(b1-4)GlcNAc = molecular target: Fuc(a1-2)Gal(b1-4)GlcNAc
# How it was run: as §1
# [20] = molecular target: Fuc(a1-2)Gal(b1-4)GlcNAc(b1-2)Man
# How it was run: as §1
# [21] = molecular target: Fuc(a1-2)Gal(b1-4)GlcNAc(b1-2)Man(a1-3)[Fuc(a1-2)Gal(b1-4)GlcNAc(b1-2)Man(a1-6)]Man(b1-4)GlcNAc(b1-4)GlcNAc
# How it was run: as §1
# [22] = molecular target: Fuc(a1-2)Gal(b1-4)GlcNAc(b1-2)Man(a1-3)[Fuc(a1-2)Gal(b1-4)GlcNAc(b1-2)Man(a1-6)]Man(b1-4)GlcNAc(b1-4)[Fuc(a1-6)]GlcNAc
# How it was run: as §1
# [23] = molecular target: Fuc(a1-2)Gal(b1-4)GlcNAc(b1-2)[Fuc(a1-2)Gal(b1-4)GlcNAc(b1-4)]Man(a1-3)[Fuc(a1-2)Gal(b1-4)GlcNAc(b1-2)Man(a1-6)]Man(b1-4)GlcNAc(b1-4)GlcNAc
# How it was run: as §1
# [24] = molecular target: Fuc(a1-2)Gal(b1-4)GlcNAc(b1-3)Gal(b1-4)GlcNAc
# How it was run: as §1
binder,measurement,setting,value
B1,glycan array binding signal (z-score),Fuc(a1-2)Gal,-0.535
same,glycan array binding signal (z-score),Fuc(a1-2)Gal(b1-3)GalNAc,-0.469
same,glycan array binding signal (z-score),[1],0.634
same,glycan array binding signal (z-score),[2],1.23
same,glycan array binding signal (z-score),[3],-0.425
same,glycan array binding signal (z-score),[4],-0.294
same,glycan array binding signal (z-score),[5],-0.259
same,glycan array binding signal (z-score),Fuc(a1-2)Gal(b1-3)GlcNAc,0.14
same,glycan array binding signal (z-score),[6],0.598
same,glycan array binding signal (z-score),[7],-0.102
same,glycan array binding signal (z-score),[8],0.088
same,glycan array binding signal (z-score),[9],-0.027
same,glycan array binding signal (z-score),[10],0.621
same,glycan array binding signal (z-score),[11],0.195
same,glycan array binding signal (z-score),[12],-0.083
same,glycan array binding signal (z-score),[13],2.44
same,glycan array binding signal (z-score),[14],-0.546
same,glycan array binding signal (z-score),[15],-0.516
same,glycan array binding signal (z-score),[16],-0.531
same,glycan array binding signal (z-score),[17],-0.369
same,glycan array binding signal (z-score),[18],-0.161
same,glycan array binding signal (z-score),[19],-0.502
same,glycan array binding signal (z-score),Fuc(a1-2)Gal(b1-4)Glc,0.021
same,glycan array binding signal (z-score),Fuc(a1-2)Gal(b1-4)Glc6S,0.2
same,glycan array binding signal (z-score),Fuc(a1-2)Gal(b1-4)GlcNAc,-0.245
same,glycan array binding signal (z-score),[20],-0.422
same,glycan array binding signal (z-score),[21],0.461
same,glycan array binding signal (z-score),[22],0.051
same,glycan array binding signal (z-score),[23],0.33
same,glycan array binding signal (z-score),[24],0.746
